From PubChem BioAssay (NCI) come the findings set out here.

Structures are written as SMILES.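 Dose response: 5 concentrations. Exposure: 48 h. Format: 96-well plates. Endpoint: linear interpolation; highest concentration if not reached. Here, GI50 denotes the concentration required for 50% inhibition of growth. The concentration for full growth arrest is given as TGI.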 Where only a bound is given, the exact number is not on record here.

The experiment concerns NCI-H322M lung. The experiment can be described thus: NCI anticancer screen, dose series, 48 h.

With `COc1ccc([C@H]2[C@H](O)C(=O)N2c2cc(OC)c(OC)c(OC)c2)cc1F`, the GI50 was less than 0.01 µM and the TGI is more than 100 µM.
